# According to paper PMC4336329 (PLoS ONE, 2015):
# In all, about 310,000 compounds went through this assay and about 14,000 (4.5%) showed an effect of 50% or more. The effect is printed as a negative number. The list shows a part of the results.
# Molecular target: human ether-à-go-go-related gene (hERG) potassium channel (human, UniProt Q12809)
# Experiment: primary screen, population patch clamp on CHO cells stably expressing hERG
# 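Further: peak tail current of the secondary pulse compared with the same well before compound.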
# Chain of human ether-à-go-go-related gene (hERG) potassium channel (Q12809 whole entry, looked up): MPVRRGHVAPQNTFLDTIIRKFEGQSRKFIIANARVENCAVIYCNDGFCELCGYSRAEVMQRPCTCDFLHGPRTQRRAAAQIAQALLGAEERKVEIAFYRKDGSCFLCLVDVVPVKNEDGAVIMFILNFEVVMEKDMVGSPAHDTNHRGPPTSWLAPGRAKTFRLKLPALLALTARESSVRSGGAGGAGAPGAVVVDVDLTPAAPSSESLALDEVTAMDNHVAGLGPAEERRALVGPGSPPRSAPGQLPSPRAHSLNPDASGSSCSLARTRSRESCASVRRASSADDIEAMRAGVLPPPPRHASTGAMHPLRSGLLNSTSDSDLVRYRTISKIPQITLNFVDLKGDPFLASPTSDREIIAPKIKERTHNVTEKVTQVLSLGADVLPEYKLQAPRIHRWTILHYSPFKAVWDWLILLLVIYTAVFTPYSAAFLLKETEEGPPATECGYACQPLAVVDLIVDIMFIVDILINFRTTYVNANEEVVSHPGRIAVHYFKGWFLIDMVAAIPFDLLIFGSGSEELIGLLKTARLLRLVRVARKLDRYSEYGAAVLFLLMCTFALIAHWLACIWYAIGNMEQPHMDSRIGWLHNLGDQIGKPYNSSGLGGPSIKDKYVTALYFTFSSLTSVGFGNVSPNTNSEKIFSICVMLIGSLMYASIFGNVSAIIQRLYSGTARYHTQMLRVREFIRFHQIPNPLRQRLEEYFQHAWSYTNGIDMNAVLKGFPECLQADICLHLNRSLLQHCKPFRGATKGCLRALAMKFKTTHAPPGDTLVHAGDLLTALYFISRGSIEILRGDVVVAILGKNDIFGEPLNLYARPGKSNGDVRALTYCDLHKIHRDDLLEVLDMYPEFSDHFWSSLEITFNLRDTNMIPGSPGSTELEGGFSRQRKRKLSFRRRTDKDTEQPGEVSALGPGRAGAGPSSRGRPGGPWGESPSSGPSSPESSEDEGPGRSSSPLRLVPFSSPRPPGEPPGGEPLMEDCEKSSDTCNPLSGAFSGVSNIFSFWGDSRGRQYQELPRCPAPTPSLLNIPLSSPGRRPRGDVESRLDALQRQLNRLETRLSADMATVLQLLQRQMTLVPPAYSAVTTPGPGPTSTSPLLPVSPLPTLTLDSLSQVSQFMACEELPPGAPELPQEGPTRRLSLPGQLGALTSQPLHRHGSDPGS
row,SMILES,"hERG current change (%, negative = inhibition) at 10uM [%]"
1,CCOC(=O)c1cccc(NC(=O)C2CCN(S(=O)(=O)c3cnc[nH]3)CC2)c1,1.65
2,Cc1cc(=O)oc2cc(N3C(=O)CC(Cc4ccccc4)C3=O)ccc12 (stereo not drawn),-5.82
3,Cc1c(OC(C)C(=O)NCc2ccccn2)ccc2c3c(c(=O)oc12)CCC3 (stereo not drawn),10.4
4,Cc1nc(-c2nnc(SCC(=O)Nc3ccc(Cl)cc3)n2C)cs1,-1.79
5,Cc1nn(CCC#N)c(NC(=O)c2ccc(Cl)cc2)c1P(=O)(Nc1ccc([N+](=O)[O-])cc1)N1CCOCC1 (stereo not drawn),9.02
6,CCOC(=O)C1CCCN(C(=O)Cc2ccc(C)cc2)C1 (stereo not drawn),4.09
7,O=C(c1cccc(F)c1)N1CCc2ccccc2C1,-7.14
8,O=C(N/N=C/c1c[nH]c2ccccc12)c1ccc([N+](=O)[O-])cc1Cl,10.7
9,Cc1cccc(CN2CCCC(C(=O)c3ccc4c5c(cccc35)CC4)C2)n1 (stereo not drawn),-40.7
10,Cl.N[C@@H](Cc1ccc(O)cc1)c1nnc([C@H](CO)NC(=O)C2CCNCC2)o1,3.1
11,Nc1nc(SCC(=O)NCCC(c2ccccc2)c2ccccc2)n[nH]1,8.77
12,O=C(CN1C(=O)S/C(=C/c2cccs2)C1=O)N1CCOCC1,10.6
13,CCOC(=O)C1=C(CSc2nc(CC)c(C)cc2C#N)OC(N)=C(C#N)C1c1ccccc1 (stereo not drawn),2.52
14,Cc1ccc(C(=O)N2CCN(c3ccccc3O)CC2)cc1S(=O)(=O)N1CCCCC1,-43.2
15,CCCC(c1nnnn1CCOC)N(Cc1cc2cc(C)c(C)cc2[nH]c1=O)CC1CCCO1 (stereo not drawn),-10.3
16,Cc1c(NS(=O)(=O)c2ccc3c(c2)OCCO3)cccc1-c1nc2cccnc2s1,1.11
17,Nc1c(C(=O)NCc2ccco2)c2nc3ccccc3nc2n1CCc1ccc(F)cc1,-6.34
18,O=C(OCC(=O)C12CC3CC(CC(C3)C1)C2)c1ccc(CO)cc1,-2.19
19,CCN(CC)CCNC(=O)c1cc2cc(Br)ccc2s1,-61.1
20,O=c1[nH]c(=O)n(-c2cccc(F)c2)c(O)c1/C=C1\C=Nc2ccccc21,14
21,O=C(COc1ccccc1)NCC1COc2ccccc2O1 (stereo not drawn),2.4
22,O=C(NCCCN1CCOCC1)C1CCN(S(=O)(=O)c2cccc(C(F)(F)F)c2)CC1,-9.45

row,SMILES,"hERG current change (%, negative = inhibition) at 10uM [%]"
1,COc1ccccc1C(=O)Nc1ccccn1,-0.129
2,Cc1ccccc1OCC(=O)N/N=C1\SCC(=O)N1Cc1ccccc1,-21.5
3,C=CCn1c(N2CCN(c3ccc(OC)cc3)CC2)nc2c1c(=O)n(C)c(=O)n2C,-32.1
4,O=C(NCCC1=CCCCC1)c1cnsn1,12.9
5,C=CCn1c(SCC(=O)NCCc2ccccc2)nc2c([nH]c3ccccc32)c1=O,-3.29
6,CC(=O)Nc1ccc(S(=O)(=O)NC2Cc3ccccc3C2)cc1,13.8
7,CC1CCc2c(C(=O)Oc3cccc(-n4cnnn4)c3)csc2C1 (stereo not drawn),-5.42
8,O=C(/C(=N\Nc1ccc(Br)cc1)Sc1nnnn1-c1ccccc1)c1ccccc1,13.8
9,Cc1ccc(S(=O)(=O)CCC(=O)N2CCc3ccccc32)cc1,-16
10,O=C(Nc1ccc(F)c(F)c1)C1CCN(S(=O)(=O)c2cccs2)CC1,-53.7
11,CC(=O)N1c2ccc(S(=O)(=O)N(C)CC(=O)NC3CCCCC3C)cc2CC1C (stereo not drawn),9.7
12,COc1ccc(OC)c(NC(=O)COC(=O)CCCN2C(=O)c3ccccc3C2=O)c1,9.05
13,CNc1ncc(Cc2ccccc2)s1,-5.32
14,COc1ccccc1OCC(=O)NC1CCCCCC1,-8.54
15,C#CCOCCOCCOCCNc1nc(N2CCOCC2)nc(N2CCN(C(=O)[C@H](CCC(=O)O)n3cc(C(N)[C@H](C)CC)nn3)CC2)n1.Cl (stereo partly drawn),12.3
16,Cc1cc(/C=C(\C#N)C(=O)N2CCOCC2)c(C)n1C1CCCC1,-2.31
17,O=C(CCCl)Nc1ccc(S(=O)(=O)NCc2ccco2)cc1,3.41
18,O=C(COc1ccc(Br)cc1)N1CCNC1=O,-0.826
19,COc1cc(C=O)ccc1OCC(=O)N1CCOCC1,2.65
20,O=C(Nc1nnc(S(=O)(=O)N2CCCCCC2)s1)c1ccccc1F,6.76
21,CCCn1c(CCC(=O)O)ccc1-c1ccc(F)cc1,8.49
22,Cn1c(S(=O)(=O)O)nc2ccccc21,13.9

row,SMILES,"hERG current change (%, negative = inhibition) at 10uM [%]"
1,Clc1ccc(CCNCc2ccncc2)c(Cl)c1.O=C(O)C(=O)O,-49.4
2,COc1ccc(N/C(=N/c2nc(C)cc(C)n2)NC(=O)Nc2ccc(Cl)c(Cl)c2)c(OC)c1,-7.96
3,C[C@@H](N)C(=O)NCC1CCC(C(=O)N[C@@H](Cc2ccccc2)C(=O)O)CC1.Cl (stereo partly drawn),22.5
4,COCC(=O)N1CCC(Oc2ccc(C(=O)NC(C)c3nccs3)cc2)CC1 (stereo not drawn),9.1
5,COc1cccc(C(C)NC(=O)c2ccncc2)c1 (stereo not drawn),27.3
6,COc1ccccc1NC(=O)CSc1nnnn1Cc1ccccc1,-15.8
7,CCOC(=O)C1CCN(C(=O)CCCn2nc(CC)n3c(cc4occc43)c2=O)CC1,-19.6
8,Cc1c(O)c2c(=O)n(-c3ccccc3)c(-c3ccccc3)cc2oc1=O,-1.68
9,CSc1sc(-c2nnc(SCC(=O)Nc3ccc(Cl)cc3)n2C)c2c1C=CCC2,10.5
10,O=C(CCSCCC(=O)NCc1ccc(F)cc1)NCc1ccc(F)cc1,-21.3
11,COc1ccc(-n2cc(-c3ccccc3)c3c(N4CCOCC4)ncnc32)cc1,22.5
12,CC(=O)NCC(=O)OCC(=O)c1ccc2ccccc2c1,2.03
13,NCCCCC(N)c1cn([C@@H](CCC(=O)O)C(=O)N2CCNCC2)nn1 (stereo partly drawn),17.4
14,Cc1ccc(N2CC(C(=O)Nc3ccc4c(c3)OCO4)CC2=O)cc1 (stereo not drawn),9.48
15,CCCCOCCCNC(=S)Nc1ccc(S(=O)(=O)N2CCOCC2)cc1,-19.3
16,O=C(CN1CCN(Cc2ccccc2)CC1)NC(c1ccccc1)c1ccccc1.O=C(O)C(=O)O,-59.8
17,COC(=O)/C(=C\c1cccnc1)NC(=O)c1ccc(OCc2ccccc2)cc1,-39.1
18,COc1ccc(C2NC(=O)c3n[nH]c(C)c32)c(OC)c1 (stereo not drawn),4.64
19,COc1c(Cl)cccc1-c1cn2ccc(C)cc2n1,-15.2
20,CNS(=O)(=O)c1ccc(C(C)(C)C)cc1,3.83
21,CCCC(C(=O)NCc1ccco1)N(CC1CCCO1)C(=O)CNS(=O)(=O)c1ccc(F)cc1 (stereo not drawn),5.99
22,COc1ccc(CNC(=O)CSc2ncn[nH]2)cc1OC,17

row,SMILES,"hERG current change (%, negative = inhibition) at 10uM [%]"
1,COc1ccc(NC(=O)/C(C#N)=C\c2ccc(OCc3ccc(C(=O)O)cc3)c(OC)c2)cc1,3.69
2,CCOC(=O)C1C(=O)C(C(=O)OCC)C(c2cccnc2)NC1c1cccnc1 (stereo not drawn),-21.8
3,COc1cccc(NC(=O)CN(C)C(=O)c2ccc3c(c2)S(=O)(=O)N=C2CCCCCN23)c1,15
4,Cl.O=C(CCN1CCOCC1)NC12CC3CC(CC(C3)C1)C2,12.8
5,COc1ccccc1C(=O)NC(CCSC)C(=O)NCC(c1ccccc1OC)N1CCCC1 (stereo not drawn),-35.1
6,O=S(=O)(c1ccc(F)cc1F)N1CCCN(c2ccc(C(F)(F)F)cn2)CC1,-18.7
7,Cc1nn(Cc2ccccc2)c(Cl)c1C(=O)NC(C)(C)C,-0.618
8,COc1ccc(-c2nc3ccccc3c(=O)n2O)cc1,25.5
9,CCc1nnc(NS(=O)(=O)c2ccc(NC(=S)NC(=O)/C=C/c3ccc(OC)cc3)cc2)s1,13.2
10,CS(=O)(=O)N1CCCC(C(=O)NCCCN2CCC(Cc3ccccc3)CC2)C1 (stereo not drawn),-33.5
11,COc1ccc(CNS(=O)(=O)c2ccc(OC)cc2)cc1,4.38
12,CC(CC(=O)NCC1CCCO1)c1ccccc1 (stereo not drawn),18.5
13,COCc1nnc(NC(=O)CC(C)C)s1,4.33
14,CCOc1cccc(-c2nnc3sc(COc4ccc(OC)cc4)nn23)c1,-9.55
15,Cc1ccc(CC(=O)OC(C)C(=O)NC2CCCCC2C)cc1C (stereo not drawn),8.11
16,Cc1ccc(NS(=O)(=O)c2c(C)[nH]c(C)c2C(=O)N2CCCCC2)cc1C,-5.1
17,CC(C)(C)OC(=O)[C@H](Cc1ccccc1)NC(=O)c1[nH]cnc1C(=O)Nc1cccc(Cl)c1,11.6
18,CC(C)CNC(=O)c1ccccc1NC(=O)c1ccccc1N(C)S(=O)(=O)c1ccccc1,-12.2
19,CCOC(=O)C1(Cc2ccccc2)CCN(Cc2ccc3c(c2)OCCO3)CC1,-33.1
20,CCCS(=O)(=O)c1cn2cccc(N)c2c1S(=O)(=O)CCC,-7.42
21,COc1ccc(NC(=O)C(NCC(C)C)c2ccccc2)cc1Cl (stereo not drawn),-0.652
